Data from PubChem BioAssay AID686979 (National Center for Advancing Translational Sciences (NCATS), 2013).
Values joined by “and” are separate entries in the source; they are usually repeats but may differ in a detail not shown here. Identical values can stand only once. About 50,000 (12%) of roughly 420,000 compounds were called active. The shares of active, inactive and inconclusive entries below differ from those in the screen. The call rests on the fitted dose curve; in most records, active means well fitted inhibition curve with a large enough effect; inconclusive means small, poorly fitted or top-dose-only effect; inactive means flat fitted curve, though single readings scatter. Potencies of inconclusive entries are doubtful fits and often do not repeat.

Experiment: qHTS for Inhibitors of human tyrosyl-DNA phosphodiesterase 1 (TDP1): qHTS in cells in presence of CPT; further: nearly all actives have a fitted effect of over 55% in size
Settings: chicken DT40 Tdp1-/-;hTDP1 cells + 20 nM CPT, ATP luminescence, 48 h; activity change, negative = growth inhibition: at 46.2 µM (top of the series)
Summary of the method: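 Cell growth measured by CellTiter-Glo luminescence after a minimum 48 h, 37 C compound exposure with 20 nM CPT in Tdp1-knockout DT40 cells stably expressing hTDP1, seeded 400/well; qHTS titration format.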
On the % scale 0 is the no-effect control and ±100 the full control effect; potency means the concentration at half of the fitted maximal effect; tags describe the fitted curve by direction and shape.

SMILES	Potency	activity change, negative = growth inhibition
CN(C)CCNC(=O)c1cccc(-c2cnc3c(NC=O)cc(-c4ccccc4F)cn23)c1	inconclusive: 29.1 µM [inhibitor, single point]	
CC1CCN(C(=O)COC(=O)c2cccc(S(=O)(=O)N(C)c3ccccc3)c2)CC1	inconclusive: 29.1 µM [inhibitor, single point]	
CCOc1ccc(NC(=O)c2nnn(CC(=O)Nc3ccccc3OC)c2N)cc1		inconclusive: -30.9% [inhibitor]
CC(=O)N1c2ccc(S(=O)(=O)N3CCCCCC3)cc2CC1C(=O)NCc1ccc(Cl)cc1 (centres undefined)	inconclusive: 20.6 µM [inhibitor, single point]	
COc1ccc(Br)c2oc(S)cc(=O)c12	inconclusive: 1.16 µM [inhibitor, full curve, poor fit]	
O=C(CN1C(=O)c2ccccc2C1=O)NC(Cc1ccccc1)C(=O)O (centres undefined)	inactive	
Cc1occc1-c1nnc(SCC(N)=O)n1Cc1ccccc1	inactive	
O=C(CSc1nc(Nc2ccccc2)nc(N2CCOCC2)n1)N1CCCC1	inconclusive: 18.4 µM [inhibitor, partial curve]	
COc1ccc(Nc2nc(OC)nc(N3CCN(c4ccc(OC)cc4)CC3)n2)cc1	inconclusive: 16.4 µM [inhibitor, partial curve]	
CCCn1c(=O)c(C(=O)NNS(=O)(=O)c2ccc(NC(=O)OC)cc2)c(O)c2ccccc21	inactive	
Cc1oc2c(C)c3oc(=O)c(CCC(=O)NCCN4CCOCC4)c(C)c3cc2c1C	inconclusive: 29.1 µM [inhibitor, single point]	
COc1ccc(N2C(=O)c3ccccc3NC2c2ccc(OC)c(COc3ccc(NC(C)=O)cc3)c2)cc1 (centres undefined)	inconclusive: 35.5 µM [inhibitor, single point]	
CN(C)CCCNc1nc2cc(-c3cnn(C)c3)sc2c(=O)n1C	inactive	
Cc1ccccc1C(=O)N1CCC(C(=O)NCCc2ccc(S(N)(=O)=O)cc2)CC1	inconclusive: 29.1 µM [inhibitor, single point]	
O=C(CNC(=O)c1ccccc1F)c1ccc(Br)cc1	inactive	
COc1ccc(C(=O)C[C@@H]2OC[C@H](Cc3ccccc3)N2S(=O)(=O)c2ccc(C)cc2)cc1OC	inconclusive: 29.1 µM [inhibitor, single point]	
CCOC(=O)N1CCC(NC(=O)c2cnn(-c3cccc(Cl)c3C)c2C2CCN(C(=O)OC(C)(C)C)CC2)CC1	inactive	
CCN(CC)C(=O)C(Cc1ccccc1)N1C(=O)c2ccccc2C1=O (centres undefined)	inconclusive: 23.1 µM [inhibitor, single point]	
N#C/C(=C(/O)c1cc2ccccc2o1)c1nc2ccccc2s1	inconclusive: 29.1 µM [inhibitor, single point]	
CCOCCCNCC(=O)Nc1cc(S(=O)(=O)N2CCOCC2)ccc1N1CCOCC1	inactive	
COc1c(OC)c2[nH]c(=O)cc3c4ccccc4n(c1=O)c23	inconclusive: 16.4 µM [inhibitor, partial curve]	
COc1ccc(CCNc2nc(C)nc3c2nnn3Cc2ccccc2)cc1OC	inconclusive: 23.1 µM [inhibitor, partial curve]	
CCSc1nnc(NC(=O)[C@@H](NC(=O)c2cccc(C)c2)C(C)C)s1	inactive	

SMILES	Potency	activity change, negative = growth inhibition
Cc1cc(OC(C)C(=O)NCCCN2CCOCC2)ccc1Cl (centres undefined)	inactive	
CC1CCCC(C)N1C(=O)COC(=O)Cc1ccc(Cl)cc1 (centres undefined)	inactive	
COc1cc(C(=O)Nc2cc3c4c(c2)CC(=O)N4CCC3)cc(OC)c1OC	inactive	
Oc1ccc(Cl)cc1C1=Nc2ccccc2N=C(c2cccc(Br)c2)C1	inactive	
CCOc1ccc(CC(=O)NNC(=S)Nc2ccccc2)cc1Br	inconclusive: 18.4 µM [inhibitor, single point]	
CCCCc1nc(N2CCN(C(=O)c3ccco3)CC2)c(C#N)c2c1CCCC2	inconclusive: 29.1 µM [inhibitor, single point]	
CC(=O)Nc1sc2c(c1C(c1ccc(Cl)cc1)N1CCOCC1)CCCC2 (centres undefined)	inconclusive: 29.1 µM [inhibitor, single point]	
CN1CCN(c2nc3c(S(=O)(=O)c4ccc(Br)cc4)nnn3c3ccsc23)CC1	inconclusive: 23.1 µM [inhibitor, single point]	
COc1ccc(C(=O)NNC(=S)NC(=O)C(C)(C)C)cc1	active: 6.51 µM	
CC1(C(=O)NCc2ccccc2)CN(S(C)(=O)=O)CC(=O)N1Cc1ccc2c(c1)OCO2 (centres undefined)	inactive	
CSC1=C(C#N)C(c2ccc(Cl)cc2)C2=C(CC(C)(C)CC2=O)N1 (centres undefined)	active: 0.92 µM	
CN(C)c1ccc(-c2ccnc3c2CC(C)(C(=O)NCc2ccncc2)O3)cc1 (centres undefined)	inconclusive: 29.1 µM [inhibitor, single point]	
Cc1ccc(C)c2c1NC(C(=O)O)C1CC=CC21 (centres undefined)	inconclusive: 35.5 µM [inhibitor, single point]	
COc1ccc(C2NC(=O)NC(C)=C2C(=O)OC2CCC(C)CC2)cc1 (centres undefined)	inconclusive: 23.1 µM [inhibitor, single point]	
CCCNC(=O)c1ccc(N2CCC3(CC2)CC(c2cccc(Br)c2)=NO3)c(N)c1	inconclusive: 20.6 µM [inhibitor, single point]	
Cc1ccccc1C(c1ccccc1Cl)N(C)C (centres undefined)	inactive	
CCN(CC)CCOC(=O)c1ccc(NC(=O)CCCN2C(=O)S/C(=C/c3ccc(OC)cc3)C2=S)cc1	inconclusive: 29.1 µM [inhibitor, single point]	
O=c1[nH]nc(SCc2cc(Cl)ccc2Cl)c(=O)[nH]1	inconclusive: 20.6 µM [inhibitor, single point]	
Cc1cc(C(=O)COC(=O)c2nccnc2N)c(C)n1C	inactive	
COc1cccc(C(=O)N2CCCC(c3nc(SCCN4CCOCC4)ncc3C)C2)c1 (centres undefined)	inconclusive: 18.4 µM [inhibitor, single point]	
O=C(N/N=C/c1ccc([N+](=O)[O-])cc1)c1cc(C2CC2)nc2ccccc12	active: 9.2 µM	
CC(=O)N1CCN(C(=O)c2cc(S(=O)(=O)N3CCCCC3)ccc2Cl)CC1	inactive	
Fc1ccc(Cn2c(-c3cccc(Br)c3)nc3ccccc32)cc1	inconclusive: 23.1 µM [inhibitor, single point]	

SMILES	Potency	activity change, negative = growth inhibition
CCOc1ccc(N2CC(C(=O)NNC(=O)c3ccc(F)cc3)CC2=O)cc1 (centres undefined)	inactive	
CN(C[C@@H](Cc1cccc2ccccc12)N(C[C@H](Cc1ccccc1)N(CCc1ccccc1)N=O)N=O)N=O	inconclusive: 16.4 µM [inhibitor, partial curve]	
CCOC(=O)C1(C)CCN1C(=O)c1ccccc1Br (centres undefined)	inactive	
OCC1(CCOc2ccccc2)CCN(Cc2cn[nH]c2-c2ccc(F)cc2)CC1	inactive	
CCOC(=O)C1(CCc2ccccc2)CCN(C(=O)CN2CCOC2=O)CC1	inactive	
CCCCNC(=O)c1nc(C2CCN(S(=O)(=O)c3ccccc3)CC2)oc1-c1cccc(C(F)(F)F)c1	inconclusive: 29.1 µM [inhibitor, single point]	
O=C(O)c1ccccc1N=N/C(=N/Nc1cc(S(=O)(=O)O)ccc1O)c1ccccc1	inconclusive: 9.2 µM [inhibitor, partial curve]	
COc1ccc(S(=O)(=O)N2CCOCC2)cc1NC(=O)CSc1nc(C)c(C)c(C)n1	inconclusive: 32.6 µM [inhibitor, single point]	
O=C(Nc1c2c(nn1-c1ccc(Cl)cc1)CS(=O)(=O)C2)c1ccccc1F	inconclusive: 18.4 µM [inhibitor, partial curve, poor fit]	
O=C(NCCc1nc2ccccc2n1CCCOc1ccc(Cl)cc1)C1CCCCC1	inconclusive: 16.4 µM [inhibitor, single point]	
Cc1ccccc1CC1CCN(CCCNC(=O)Nc2ccccc2)CC1	inconclusive: 8.2 µM [inhibitor, partial curve]	
COC(OC)C(C)NC(=O)NC(=O)c1ccccc1Cl (centres undefined)	inactive	
Cc1ccc(C(O)(C(=O)NNc2ccc3ccccc3n2)c2ccc(C)cc2)cc1	inconclusive: 23.1 µM [inhibitor, single point] and inconclusive: 29.1 µM [inhibitor, single point]	
Cc1nn2c(C)c(C(=O)NCC(C)c3ccccc3)cnc2c1-c1ccccc1 (centres undefined)	inconclusive: 29.1 µM [inhibitor, single point]	
CN(C(=O)c1ccc(NC(=O)Cc2cccc(NC(=O)C3CCN(C(=O)C4CCCC4)CC3)c2)cc1)C1CCCC1	inconclusive: 20.6 µM [inhibitor, single point]	
Cc1cccc(NC(=O)c2sc3nc(-c4ccccc4)cn3c2C)n1	inconclusive: 18.4 µM [inhibitor, single point]	
Cc1cccc(NC(=O)CSc2nccn2-c2cccc(Cl)c2)c1C	active: 20.6 µM	
Cc1nn(Cc2ccccc2Cl)c2sc(C(=O)Nc3ccccc3N3CCOCC3)cc12	active: 10.3 µM	
Cc1cccc(S(=O)(=O)c2c(N)n(/N=C/c3ccccc3)c3nc4ccccc4nc23)c1	inactive	
Nn1cnc2c(c1=O)C1(CCCCC1)Cc1ccccc1-2	active: 9.2 µM	
Cc1ccc(Cc2cnc(NC(=O)/C(C#N)=C/c3ccc(-c4ccccc4[N+](=O)[O-])o3)s2)cc1	inconclusive: 29.1 µM [inhibitor, single point]	
O=C(NCCO)c1ccc(-c2nnc(Nc3ccc(O)cc3)c3ccccc23)cc1	inactive	
O=C(Nc1ccc2ccccc2n1)c1ccccc1	inconclusive: 16.4 µM [inhibitor, single point]	
